Assay results published in the supplement of paper PMC3334620.
The full ranking holds about 33,000 sequences; the median of “E-score (-0.5 to 0.5)” is about -0.01, and the highest 2% start at about 0.26. Some of the results follow.

Each sequence was assayed against Ste12 (UniProt P13574) (assay: PBM E-score (8-mer binding enrichment) (E-score (-0.5 to 0.5)); higher = stronger / more preferred TF binding; most listed sequences are background and not binding sites). Settings: protein concentration: 200 nM; construct: GST-DNA-binding domain.
Experimental: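 Universal 'all 10-mer' protein binding microarrays (Agilent AMADID 015681) probed with GST-tagged S. cerevisiae TFs (full-length or DBD) made by in vitro transcription/translation (PURExpress), about 100-200 nM. Bound TF was detected with fluorescent anti-GST. Each ungapped 8-mer (which stands for itself and its reverse complement) is scored by the PBM enrichment score (E-score), a modified Wilcoxon-Mann-Whitney statistic from -0.5 to +0.5, computed with the Universal PBM Analysis Suite. Scale: above 0.35 generally sequence-specific binding.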

Sequence	PBM E-score
TCATGCGA	0.0407
CGAGGCAG	-0.0653
ATTTCAAC	0.161
GGAAACTA	0.0625
ATTTCGCG	0.126
AACTCTGC	-0.149
AAGTTGGG	-0.0163
CTCCGAGA	0.0872
TACCTCTA	-0.00154
CAGGGAGA	-0.142
ACGACGGA	-0.0551
CGATGTCC	0.0357
AAAATGCT	0.0799
ATCAGTGA	-0.014
GGAGTTAA	-0.0873
CGTGGTCC	-0.252
CCTATGAC	-0.0451
AGTTGAGC	-0.152
AGAAGGTA	0.071
AAGTCGAG	-0.21
CTGGCGAA	-0.0468
CCACAGGG	-0.311
CAATCTTC	0.144
GAGCTGGA	-0.263
GCCAACAC	-0.0779

Sequence	PBM E-score
GTGCAGTA	-0.105
CACGCCCC	-0.053
ATACGCAG	-0.211
ATCACTCC	-0.00583
ATCTCGTG	-0.191
ATTCCCCC	-0.221
TGGTTTAA	0.114
GTACCAGA	-0.0263
CAAATATC	0.202
GATAGCTA	-0.217
CGACTGAC	-0.136
CCCGTACA	-0.173
ACGCTTCT	-0.0568
AACAATGT	0.152
ATGGCTTG	-0.11
ATTTACTG	0.171
AACCTGTG	-0.0978
AATTGGGA	0.217
TAACGCTA	-0.109
AATGCCCC	-0.15
ACACTAGT	0.0355
CGATTCGA	0.222
CCGCGCAA	-0.128
ATATTTTC	0.24
AAGGCCTC	-0.281

Sequence	PBM E-score
ACGCTGTC	-0.245
CTGCACAC	-0.0795
ACTCAAGA	-0.0306
CTGGGCCC	-0.193
CTACGAGC	-0.154
CCTAGTCG	-0.106
GTTTGCAA	0.186
AGGTTGTC	-0.156
CGACGCTC	0.0628
ATCTCTGC	0.0868
AACGACCG	-0.16
AGATAGCG	-0.064
AGTAAATA	0.195
CGTACTTA	-0.0226
CACCACCC	-0.109
ATGATCTC	-0.0488
CAACCGCA	-0.128
CGTGAGTA	-0.0256
AAGCTCGC	-0.002
AACTTGGG	0.0515
GACCGCCA	-0.0164
CGAGGTGA	0.217
CACTCCCC	0.145
CCATGGGG	-0.0828
GGAATCTA	0.134

Sequence	PBM E-score
AAATAGTC	-0.0801
GAGAAGGC	-0.04
AGCCAATA	-0.138
CACTCTGG	-0.0849
TATGTCCA	-0.166
GCAGCAAC	-0.0291
CGGGAGCA	-0.159
CACTTTGC	0.0517
GGTGCAGA	-0.0262
ATGAACCC	0.019
CACCAAAG	0.097
CTACCTGA	-0.0555
CCGTCTTC	0.0624
AATTGCCT	0.185
AGACCCAT	0.0417
ACGGAGAA	-0.0374
AAGCTAAC	-0.0717
ATATTGAG	0.108
CTCCCTGA	-0.0927
CAACTAGG	-0.139
ATACATCC	-0.0557
CAATTTCC	-0.0578
GATGCAGC	-0.00181
AGGCCGAT	-0.136
AACTTCCA	0.0644

Sequence	PBM E-score
AATCCATT	0.137
AGCGCTGG	-0.113
CATTTTTC	0.189
TCACCACA	-0.105
ATTACAAA	0.165
CAGGTATC	-0.149
AACAATAC	0.0824
ATGTATTG	0.128
AATTCCTG	0.0287
GTGCGTAA	-0.00441
ACAAGAGC	0.0293
CAGACAGC	-0.025
GTCTCATA	0.212
CTTCGCAC	-0.0981
TGGAACAA	0.176
AATGCGCA	0.134
AGTTACGG	0.00823
GCCGTAAC	0.0092
CTGTTAAA	-0.0651
CGCTGCAC	-0.108
ACTAATAC	0.131
CCATGTAC	0.0115
CGGCCTTC	-0.0176
GGTTTGTA	0.029
AAATCGAG	0.131

Sequence	PBM E-score
ACCAGGGG	-0.141
ATACGAAA	0.215
CCGCCCGA	0.111
AAATCCGC	-0.131
CGGCACAA	-0.0626
AGATGTTC	-0.217
ACAATTCG	0.152
GACCCACA	0.0411
AAGTCTTC	-0.0652
AAATACGC	0.162
ATTCAGCG	-0.033
AGACCCTA	-0.188
CAAGCCAC	-0.147
AGCTCGAA	0.132
CAATGGCG	-0.133
TCGAGGCA	-0.0607
GTGCCGCA	-0.0284
TCATTCCA	-0.0298
AAGTATAA	0.14
TCGAATCA	0.0236
GCCCACAA	-0.0907
ACGGCACC	-0.115
ACTCCTTA	-0.0459
CATTCCTA	0.00051
AATACTGC	-0.103

Sequence	PBM E-score
CAGCCGGA	0.138
CGTAGGGC	-0.168
AATTGACA	0.157
AGCCTAGA	-0.191
CAGCGGTA	0.0564
CATAGAAG	-0.00407
ACGCCGCA	0.0482
TCCCTCCA	-0.191
CAGTTACC	-0.128
GATAAATC	-0.0398
ACGGGACT	-0.209
AACTAACC	0.233
ATTGTCAA	0.118
ACCTAAGT	0.0247
CGAGAGCC	-0.209
GAAATGGC	-0.0959
AAAAGCGC	0.119
CAAGCACG	-0.128
AACCCCAT	0.205
GCGGCGTA	0.151
AACCCCAC	-0.12
GACTCCCC	-0.26
CCCGTCCG	-0.288
CCAATCCA	-0.0476
ACTCCAGC	-0.195

Sequence	PBM E-score
AAGATGCT	-0.0781
GCGACAGC	-0.0731
AAGAATGA	0.209
TCTTCCCA	0.0588
ACCGTCAT	-0.101
ACCACTAG	0.106
CCTCGACG	-0.193
CGGCCCAG	-0.161
CAGGGGTA	-0.0986
CGCTAGCG	-0.212
AACCTTGT	-0.145
CAACCCGA	0.135
ACGTGGCC	-0.312
CGTTTCGA	0.195
AAACTACC	0.15
ATTAATTA	0.237
AGGAGTGA	-0.0312
AGAGGGGG	-0.315
ACGCGAAG	0.136
AAACACGG	0.195
ACATTGTG	-0.102
ACATGGCA	-0.0155
AAAGCTGG	-0.00491
GTGTCAAC	-0.0894
AGAATTTG	0.0447

Sequence	PBM E-score
AACCAGGG	-0.0139
TATATCCA	0.118
ATGCAACA	0.104
CACAGTCG	0.0514
GCTCCGTA	-0.146
ATATATAC	0.271
CATTCAAA	0.113
AGCTCCCG	-0.233
GTAGGAAA	-0.0141
TACCGATA	0.0578
AGGGTTGG	-0.0296
CAATTTTA	0.253
AATTGTCT	0.101
CAACCCCG	-0.0295
CGAACTCC	-0.116
GCCTCAGA	0.165
AACCCAGC	-0.126
GCCTATAA	0.0897
GCGGACAC	-0.16
ACATTGAT	0.0854
AGCCCACC	-0.0991
GGGAAAAA	0.272
AGTTGCCC	-0.0196
AAGTCAGT	0.0177
AGTAATGA	0.0777

Sequence	PBM E-score
CGCGCCTC	0.108
GCCCGACC	-0.017
AGTAGATA	0.16
AAGGCAAG	-0.124
AGGAAGTC	-0.0505
ACAGCGCG	-0.107
ATCTGTGC	-0.107
CGAGGAGA	-0.145
AGGTAACC	-0.235
CGGATTCC	0.0541
GCTGGAAC	-0.0795
GCACGTGC	0.0433
ACACCAAA	0.169
GCATTTAC	-0.0119
AATAGTTG	0.255
CCCGATCC	0.0845
CGTCACGC	-0.088
AAAACAAA	0.293
AAGCACGA	0.245
CACGCCAC	-0.0829
CAGAGGTC	-0.077
GAGGGCGA	-0.314
CTGATTCC	-0.0344
GAGAAATC	0.143
ACGTCTCC	-0.0154

Sequence	PBM E-score
GACTCCGA	-0.07
AATGGGAG	0.021
ACGTTGTG	-0.0465
CGGCGACA	-0.0615
TGGGTAAA	-0.00616
CCAAACGC	0.0717
GCACAGCC	-0.0851
ACCCGATG	0.157
TAAAAACA	0.223
CTTCAGCA	-0.061
GTCTTGAA	0.117
AAGACTAG	-0.278
AAGCCCGT	-0.0825
GCCGACAA	-0.106
ATCTTTGA	-0.0467
GATCATGC	-0.146
AATAGCAG	-0.0902
AATCGGTG	0.0398
ATTCTATC	0.0428
AGGACACC	-0.121
CTAGGGTA	-0.0216
ACCTCGAC	0.0356
GTTCCAAA	0.256
GGCATATA	0.155
ACCGCTGA	0.0493

Sequence	PBM E-score
AATAAACA	0.284
AGGTGGGA	-0.049
CAGCTAGC	-0.0892
AGAACAAA	0.312
CGCGCGAG	0.00855
AATTATAT	0.227
AAAGTGGG	0.182
CTGACTGA	-0.193
AATGGACT	-0.155
AGTCCTGA	0.0671
GCTCTATA	-0.139
CGATCTCC	-0.108
TTTAGAAA	0.157
CGGTTTAC	-0.055
AAACGTTA	0.0762
CCAAGGGC	-0.139
ACACCAGA	0.0999
CGTAACCA	-0.0743
CCTTCCCC	0.045
CGGAACCG	0.0345
GATACATA	0.18
CGCATGTC	0.0488
GACCTGAA	0.13
CTAATCTC	-0.00473
TCAGCTAA	-0.169

Sequence	PBM E-score
CACGAGAG	-0.0675
AATGGGAT	-0.185
AACGATAT	0.186
CGATGCGC	-0.0237
CGTAAAAG	0.196
CAACTCAA	0.186
CTGAGGCA	0.0376
GCGTCTGA	0.0384
AAAATCGA	0.231
ATACTATA	0.00329
AAAATCCG	0.163
CGGGGACA	-0.0346
GTTAGTCA	0.0319
CACGCAAG	0.0553
ACTGCACC	0.0378
CACTAAGC	-0.174
AGCTTGAT	-0.171
ATAGCAAG	0.168
GCGTCAAC	-0.0194
ATGATGGG	-0.0865
AGTGCCGG	0.0761
AACCGTGT	-0.0169
ACGAGACG	-0.0742
GTTTGCCA	0.0814
AAACCCAT	0.131

Sequence	PBM E-score
CTTAAGAC	-0.103
CCGCGTAA	-0.0657
ATGCGCTA	-0.0142
CGATCTTA	-0.174
ACGGTCCT	-0.222
CGAAGAGC	-0.118
TTACGGAA	0.0606
TAGTCAAA	0.0766
CATTGAGC	-0.204
GACCCCTA	-0.194
GATCGAGC	-0.0127
ACTGTTTC	0.289
AGCCCGAC	-0.0725
ACCTATCT	-0.0992
CGCGGCAG	0.22
CCCACGTC	-0.0744
GACAAAGC	-0.0185
AATGAGGG	-0.025
CTTGCACA	0.0682
